# Measured values: the supplement of paper PMC12632987
# Whole data set: some 4,500 sequences, median “median log2 fold change of GCK-ALFA target abundance (FLAG IP / Myc IP barcode read proportion)” near 0.078, cut for the lowest 2% near -0.6. This is one part of the list.
# B1: GBRAP_52_5887 (protein)
# chain: KLEEAVALLKAMIEAVKAGDEEEARALAKEIVENFDEETILAAVERVAEELLDATLEEAKAFWEAAELLSEVLLEKGGSEEIASYIEAIAGATLYKVEQK
# B2: GBRAP_52_6189 (protein)
# chain: MREEIREKVLEILELVKEGKEEEARKKARELVESLNEEELKLLVEVLAEVAAEAPLEDDDAVFRLAEILAEAIEEAGKDEALAEDLLAAVAAALYAKEQA
# B3: GBRAP_166_4893 (protein)
# chain: MVEEAIKKIKEIAEKTIANIKELTLEEIQESFIEMAEIVEKAGETPELIETAAEEATKVVVEAVKAGFDREELESLALAAFGSNEELLDVLEAKLEAAKA
# B4: GBRAP_184_5077 (protein)
# chain: AVKEEVIEVENLAEAREKLAALAEKIKDFKGTLVVHVKMPKAERETLEAILEGLAAIKKAGYVTDVTVGFDADVTEEQVDFIVDTADRLGVRVVLALPEE
# B5: GBRAP_160_4367 (protein)
# chain: SEELKKLAEEIRKLLEELKELAKDLTPEEVRTLALGVLAEIAALVWSNPAISDEVEDKIMEIIDKAEEEIRANEDATPEEILEITTKAIEEIIALIEEEA
# B6: GBRAP_78_6708 (protein)
# chain: SVEEKLEEAIEHLGKAAKLLVKIGTELANDALGHLVDAITYLWEAIEEGADLELLEEARKHLEKAIELAKKLDVPEKEEILKHLEEALKLVDEAIKEVKK
# B7: GBRAP_43_5765 (protein)
# chain: SKELVDGAFDFALLMLEEPEIPEEQKVKAIQAAFELAADEGYVDQEKVDAVVKAAAATLSAENLKKILKAIEEIAKKYPELKETLDKAAKALKKAIKAKE
# B8: GBRAP_80_6841 (protein)
# chain: AEAALAAARAKLYALLPEAKPLLDEVIALAKELGVPDSVIADYVAALAELAAKDPAAAKALLEELLEDLKELKAEGDTANAEAVVRGYAGEALMQAEELE
# B9: GBRAP_83_6887 (protein)
# chain: AEEITVGATADHVEAAVEAAVDLAKEEGYKVVLDLAVTPESVPRLKAALEKVAAAGVKLELRVTVVAPTEEEARATAAEIRAHAEETGAASRLEVETEVV
# B10: GBRAP_160_4805 (protein)
# chain: SEKVEKLLKEARKDLLDTAEASKDLPIEDQAKLLEAEGYTNILDFREELGISDETEDKLAEIVDEMVATLRANPDLTPEEVLALVEEAAKKMEEIVKKEA
# B11: GBRAP_184_5102 (protein)
# chain: KTLVVEVEAETKEEAIAQIKKALDEAAAQGASLIVLLKLKNVSEEEIVEVIRTVGEYAKEKGIPSLTIGIENELDEETIDKAVEVADELGIKLVVVYPDE
# B12: GBRAP_184_5078 (protein)
# chain: KTLERLIEAETKEELLKKVDEVIKEAAAQKANLNVYIDMPGLTTEIALEIIDRLGKAKKAGKVPKVTVGFDEEFSEEEIDILVKKADEQGINVVLPIKDE
# B13: GBRAP_184_5300 (protein)
# chain: TVVNVFIEAETAEEAIKKIEAEAAKARAAGVKLSIYLSLKNVSVEGFKKIMEKLKALKDEGIIESATVEIEDDKSEEEIDEFIKLADEAGVKLVVALPDE
# B14: GBRAP_166_4906 (protein)
# chain: MKEEKIEELIERAEELIEELKEADEEEALELLIEIGEVLRELKELGASEEEILELVRRTLEAVKERGLSVRVAAGIIAEVADFDEEMREKLDEIAREVEA
# B15: GBRAP_11_2890 (protein)
# chain: KKEKLEEAAELARELVELLEELLEEGVDNEELQEEALETAERLLELAKKHLDKALQKDVEILLELVKEMLEDPERREEYAREALAAARVLEGDLLLELEE
# B16: GBRAP_184_5155 (protein)
# chain: KVLEEVIEAENLEELKEKLEEIEKKAKEEKADLIIYLDVEELTKEMVDLLAERIKEIKDAGYVKSITVGVDAELTEEMVDYVLEKFDEAGAKVAVALDEE
# B17: GBRAP_166_4952 (protein)
# chain: SMEEIKEEARKRIEELAKKMKEEDAEGQLELQAEIAETLAEAKEAGLSEEELLELVRLALKLVKEAGGDVDAFVGALNIFVDLSEEEIEKVEELREEVKK
# B18: GBRAP_160_4085 (protein)
# chain: SEEFEKLIKEVKDIFDEAIEMMKDVSKEEAVNIALVALGEVALLIEEAEELSEEAKEELLKLIDEGEKEIKANKDKSVEELIKLLKEFEEKIIEAIKKAA
# B19: GBRAP_160_4277 (protein)
# chain: SEELKELAKELEEDKEEILKLVDEISPEELKTFAVTEMGSHLLEAIELEGITEEQEEELAKIIDQLEKDLTAAKNASPEELKKIITEHYDKMIEILLKAK
# Molecular target: GABARAP, O95166
# Sequence (O95166 whole entry, the tested form may be a part): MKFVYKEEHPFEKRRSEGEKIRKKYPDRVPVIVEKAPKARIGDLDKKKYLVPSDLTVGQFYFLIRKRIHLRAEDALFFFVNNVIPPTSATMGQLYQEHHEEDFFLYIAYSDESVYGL
# Experiment: median log2 fold change of GCK-ALFA target abundance (FLAG IP / Myc IP barcode read proportion) (log2 ratio); each designed protein is fused to an ALFA-tag nanobody in HEK293 cells to bring the named protein to FLAG-tagged glucokinase (GCK); Myc marks an untargeted standard; higher = target protein stabilised (more abundant)
# Settings: target protein: 3xFLAG-MCP-GCK-ALFA reporter; HEK293 landing pad (RPLP)
# Procedure, shortened: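 An ALFA-nanobody-fused binder library was recombined into HEK293 landing-pad cells and induced with 2 μg mL^−1 doxycycline. Cells were transfected with a plasmid expressing a FLAG-tagged target and a Myc-tagged standard. After 48 h, lysates underwent anti-FLAG and anti-Myc immunoprecipitation, and circular RNA barcodes were reverse transcribed, amplified and sequenced. Target abundance is the per-binder median log2 ratio of FLAG to Myc barcode read proportions. Barcodes needed ≥10^−7 proportion in both replicates, binders ≥3 barcodes per replicate, and a 10^−6 pseudocount was added; the two replicates were pooled.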
row,Binder,median log2 fold change
1,B1,0.0559
2,B2,0.105
3,B3,0.127
4,B4,0.0579
5,B5,0.288
6,B6,-0.136
7,B7,0.325
8,B8,0.0765
9,B9,0.0106
10,B10,-0.0905
11,B11,-0.0725
12,B12,0.165
13,B13,-0.00309
14,B14,-0.128
15,B15,0.0648
16,B16,-0.14
17,B17,0.296
18,B18,0.157
19,B19,0.157
